Results from PubChem BioAssay (NCATS).
This list was built around the results that the source calls inconclusive (neither active nor inactive); the mix of calls is not that of the screen. Potencies of inconclusive entries are doubtful fits and often do not repeat. Activity calls are given as the source filed them. Calls come from the whole dose curve; as a rule, active = well fitted inhibition curve with a large enough effect; inconclusive = small, poorly fitted or top-dose-only effect; inactive = flat fitted curve, though single readings scatter.

Tested on: HEK293
Experiment: Cytotoxic Profiling of Annotated Libraries Using Quantitative High-Throughput Screening (AID 1296008); note: nearly all actives have a fitted effect of over 60% in size
Settings: Five cell lines viability, CellTiter-Glo ATP luminescence, 48-72 h; max response: stronger effect = lower value
Summary of the method: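 Cytotoxicity was measured as CellTiter-Glo ATP luminescence, read after 10 min at room temperature. Compound treatment of the cells lasted 48 or 72 hr at 37 degrees Celsius in a qHTS format.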
% is set by controls: 0 for no effect and ±100 for the full control effect; potency is the fitted concentration of half-maximal effect; tags give direction and shape of the fitted curve.

Row | SMILES | max response | Potency | outcome
1 | Oc1ccc2c3c1O[C@H]1c4[nH]c5c(N=C=S)cccc5c4C[C@@]4(O)[C@@H](C2)N(CC2CC2)CC[C@]314 | inactive: -0.6% | – | –
2 | Clc1cccc(SC2CCNCC2)n1 | inactive: 1.87% | – | –
3 | CCOC(=O)Nc1ccc(NCc2c(C)cc(C)cc2C)cc1N | – | inconclusive: 29.1 µM [inhibitor, single point] | –
4 | CCCCOC(=O)c1ccnc2cc(C(OCCN3CCCCC3)c3ccccc3Cl)sc12 (stereo unspecified) | – | inconclusive: 29.1 µM [inhibitor, single point] | –
5 | CC1N=C(N)OC1c1ccccc1 (stereo unspecified) | inactive: -15.4% | – | –
6 | COC1CC(O[C@H]2CC[C@]3(C)C4CC[C@]5(C)[C@@H](C6=CC(=O)OC6)[C@@H](OC(C)=O)C[C@]5(O)C4CC[C@@H]3C2)OC(C)C1O (stereo partly specified) | – | active: 0.502 µM | –
7 | O=C(NC(=O)c1c(F)cccc1F)Nc1cc(Cl)c(OC(F)(F)C(F)C(F)(F)F)cc1Cl (stereo unspecified) | – | inconclusive: 29.9 µM [inhibitor, single point] | –
8 | CN1CC[C@]23c4c5ccc(O)c4O[C@H]2[C@@H](O)C=C[C@H]3[C@H]1C5 | – | inconclusive: 67.9 µM [inhibitor, single point] | –
9 | COc1cccc([C@@]2(O)CCCC[C@@H]2CN(C)C)c1 | inactive: -4.04% | – | –
10 | CCOC(=O)CC(SP(=S)(OC)OC)C(=O)OCC (stereo unspecified) | – | – | inactive
11 | CCCCCn1cc(C(=O)c2cccc3ccccc23)c2ccccc21 | – | inconclusive: 18.4 µM [inhibitor, single point] | –
12 | CCC(COC(=O)c1cc(OC)c(OC)c(OC)c1)(c1ccccc1)N(C)C (stereo unspecified) | – | inconclusive: 0.133 µM [inhibitor, full curve, poor fit] | –
13 | O=S(=O)(O)C(F)(F)C(F)(F)C(F)(F)C(F)(F)C(F)(F)C(F)(F)C(F)(F)C(F)(F)F | – | inconclusive: 68.6 µM [inhibitor, single point] | –
14 | CC[C@H]1C[C@@H]2C[C@H]3c4[nH]c5ccc(OC)cc5c4CCN(C2)[C@@H]13 | – | inconclusive: 59.9 µM [inhibitor, single point] | –
15 | Cc1ccc(-n2nccn2)c(C(=O)N2CCN(c3nc4cc(Cl)ccc4o3)CCC2C)c1 (stereo unspecified) | – | inconclusive: 29.1 µM [inhibitor, single point] | –
16 | COC1CC(O[C@H]2CC[C@]3(C=O)C4CC[C@]5(C)[C@@H](C6=CC(=O)OC6)CC[C@]5(O)[C@@H]4CC[C@@H]3C2)OC(C)C1O[C@@H]1O[C@H](CO)[C@@H](O[C@@H]2O[C@H](CO)[C@@H](O)[C@H](O)[C@H]2O)[C@H](O)[C@H]1O (stereo partly specified) | – | active: 0.219 µM | –

Row | SMILES | max response | Potency | outcome
17 | CN1C(=S)CN=C(c2ccccc2)c2cc(Cl)ccc21 | inactive: -23.9% | – | –
18 | CCOC(=O)c1cncn1[C@H](C)c1ccccc1 | – | – | inactive
19 | COCC(=O)N(c1c(C)cccc1C)C(C)C(=O)OC (stereo unspecified) | inactive: -19.3% | – | –
20 | COC1CC(OC2CCC3(C=O)C(CCC4C3CCC3(C)C(C5=CC(=O)OC5)CCC43O)C2)OC(C)C1OC1OC(CO)C(O)C(O)C1O (stereo unspecified) | – | active: 0.193 µM | –
21 | Nc1ccncc1 | inactive: -0.798% | – | –
22 | C[C@@]1(C(=O)O)CC[C@]2(C)CC[C@]3(C)C4=CC(=O)c5cc(O)c(O)cc5[C@]4(C)CC[C@@]3(C)[C@@H]2C1 | inactive: -9.77% | – | –
23 | CN1CCN(c2nc3ccccc3nc2Cl)CC1 | – | – | inactive
24 | C=C1C(=O)OC2/C=C(\COO)CC/C=C(\COC(C)=O)CC(OC(=O)C(C)CC)C12 (stereo unspecified) | – | inconclusive: 10 µM [inhibitor, single point] | –
25 | CC(C)N(CCC(C(N)=O)(c1ccccc1)c1ccccn1)C(C)C (stereo unspecified) | – | inconclusive: 18.4 µM [inhibitor, single point] | –
26 | Nc1ccccc1C(=O)OCC(O)CO (stereo unspecified) | – | – | inactive
27 | CC(Cc1ccccc1)NCc1ccccc1Cl (stereo unspecified) | inconclusive: -30.2% [inhibitor] | – | –
28 | COc1ccc(CC2NCCc3cc(OC)c(OC)cc32)cc1OC (stereo unspecified) | – | inconclusive: 20.9 µM [inhibitor, partial curve, poor fit] | –
29 | CCCN(CCC)CCc1ccc(OC)c(OCCc2ccccc2)c1 | – | inconclusive: 29.1 µM [inhibitor, single point] | –
30 | COC(=O)C12C(=O)C(C)(O)C(=O)C1(C)C(C)=CC1C3(C=O)CCC(OC(C)=O)C(C)(C)C3CCC12C (stereo unspecified) | – | inconclusive: 15.9 µM [inhibitor, single point] | –
31 | CCCN(CCC)C(=O)Cc1c(-c2ccc(Cl)cc2)nc2ccc(Cl)cn12 | – | inconclusive: 29.9 µM [inhibitor, single point] | –
